Values marked as one replicate rest on one cluster of the flow cell; about a third of the high ones do not repeat.

For the data set, the system named is ATP. The data set can be described thus: switch fluorescence ratio, 500 uM ATP over buffer (Cy3 cluster intensity, sum of 5 cycles each) (fold (ratio)); higher = stronger signal-on switching upon ATP binding; sequences stand for … in TCGTCGGCAGCGTCAGATGTGTATAAGAGACAGTTTTTTTTTTTTTTTTTTTTTTTTT…TC. The settings on record: aptamer strand: ATP DNA aptamer (quencher-CACCTGGGGGAGTATTGCGGAGGAAGG + anchor), 100 nM annealed; ATP concentration: 500 uM; one replicate. The method in brief:
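Between each of five buffer/ATP cycles, the flow-cell was stripped with NaOH and re-annealed. Each cycle imaged Cy3-labelled switching-strand clusters, annealed to 100 nM quencher-labelled ATP aptamer on a modified Illumina MiSeq flow-cell, first in selection buffer and then after 15 min with 500 uM ATP at 22 °C. The fluorescence ratio is summed target-cycle over summed buffer-cycle Cy3 intensity per cluster, averaged per switch-domain sequence, with clusters outside 100-1000 RFU excluded.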
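Note: ATP exposure 15 min at 22 °C before imaging.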

Consider GCTGGCTCTG, for which the switch fluorescence ratio is 0.981. On to GTACGGGACC, for which the switch fluorescence ratio came to 1.27. For AAGATATTTA the value was 0.984; for ACTAGGAGGT, 1.05.

For CCGTTGCTAG, the switch fluorescence ratio was found to be 1.14. Regarding CGAATCATTT, the switch fluorescence ratio was determined as 0.94. Under ATCTACAGGA stands 1.01; under GGATATTATG, 1.04; under GGCGCAGTGC, 2.89. For GGCGCGCAAG the value was 1.13. For CGACCTGAT the value was 1.13; for GAGCCCTCAA, 1.02; for CTGAACGTTG, 1.15.

Regarding TCCTTATTAT, the switch fluorescence ratio was determined as 1.

Consider GTATCAGTAA, for which the switch fluorescence ratio came out at 0.981. For ACTTATGTAA the value was 1; for CATTAAATGC, 1.08; for TTTCCGTCAG, 1.09. For GAGGGTCCCA the value was 0.988; for AGGTAGTTGG, 1. Under AAATCTCCGT stands 1.09. For GGATGGTTAT, the switch fluorescence ratio amounted to 0.966.

Consider GGCTTGGGAC, for which the switch fluorescence ratio turned out to be 0.987. On to GCATGCAAGA, for which the switch fluorescence ratio came to 0.986. Under TTTGCACGCA stands 1.04; under AACTTATATA, 0.988; under TAGGTAACGG, 0.997. For CGTTTTGCTT the value was 0.991; for TCGTACTTCT, 1.01; for GATGGAATGT, 1.01. Turning to TAGGCTTTAT, the switch fluorescence ratio was found to be 0.97. Regarding AGGGAATACT, the switch fluorescence ratio was 1.24. Under CTGGTAAAAG stands 1.01; under TCATTATCAA, 0.951. For CGAGGTAGGT the value was 0.975; for ACAAGCTCCC, 1.44; for ACCAAGTGCT, 1.09. Under GAGGCCCGAC stands 0.937. In the case of AGCAATTTGA, the switch fluorescence ratio came out at 1.12. Under GAGAATTGG stands 1; under ATGTATTATC, 0.997. For GGGATATACC the value was 1.03; for GTACGGGGTG, 0.972. For AAAAGTTTCA the value was 1. For the sequence CAACGAGTTA, the switch fluorescence ratio was 0.986. In the case of AAGCTGGTAG, the switch fluorescence ratio is 1.03. For GGATGAAGT the value was 0.941; for CAGTGGCGT, 0.971; for CTCCAACGG, 1.05. Under TCGTTTGTAC stands 1.18; under GCCTTTCGGT, 1.

GTCATCCCAA: the switch fluorescence ratio was 1.99. Under TTGAAAATC stands 1.1; under GAAAGGATGG, 0.993. Under GCAATTACTT stands 1.64. In the case of GTCCCATAT, the switch fluorescence ratio was determined as 1.03.

In the case of GTGAGCTTTT, the switch fluorescence ratio turned out to be 0.966. Under ACGGTGAATT stands 1.03.

Turning to AATTTACCAT, the switch fluorescence ratio came out at 1.03. For CAGTACGCC the value was 1.02.

Take ACGTCTGT: the switch fluorescence ratio stood at 0.964.

With ACCGGTCCGC, the switch fluorescence ratio came out at 4.65. Under TGAGAACGGA stands 1.01. Under TCAGTACTCT stands 1.03; under AGTCGGCGGT, 0.915. For AAAATCAGAT the value was 1.01; for AAGAGTGTTG, 1.02; for CGGTAGTAGG, 0.988. CGTCGCGTAC: the switch fluorescence ratio turned out to be 3.26. For ATTGGTTTTA the value was 1.43.

On to CGAGAGCGTA, for which the switch fluorescence ratio amounted to 0.987. For CAAAGGCTCT the value was 0.99; for GCAGATACGT, 1.21. For TTTCTGATGG, the switch fluorescence ratio came out at 1.02. For ATGGTGACG the value was 0.918; for AAAGGTCTTG, 1.03. Under CTGCCGCCGA stands 1.3; under AAGCTCCCGT, 1.02. For TCGGCCTGGA the value was 1.03; for CTCTATTCGG, 1.01. On to CCATGGGACC, for which the switch fluorescence ratio was 1.01. For AGATGGCAGC the value was 0.995; for GCTTGCTACG, 1.14; for ACCTGATGC, 1.12. For AAGCATAGTA the value was 1.04.

ATAACCCCTG: the switch fluorescence ratio was 1.05. Under GCTGCTGTCT stands 1.02; under ACCTACGGGA, 1.39; under CAGGGTGTAT, 1.01. With TAATTAGGTG, the switch fluorescence ratio worked out at 1.17. For CGGCTCTGCA the value was 1.08. For CAATTTGCGC the value was 1.03; for CAGTATCCGA, 1.01; for GGTTGATAGT, 0.922.

As for ACACCCA, the switch fluorescence ratio worked out at 1.23. For TATGTTGGT the value was 0.972; for GAAATCAATC, 1.22; for GACTGTTGTG, 1.

TAAAAAGAAT: the switch fluorescence ratio was 0.966. Under ACTCAATA stands 3.56; under TAACCTGGCT, 1.07; under CACGCACTGA, 1.63. Under CTCTTAAAGC stands 1.12. Under TGATATATCC stands 1; under TATCGGTGTC, 1.07. In the case of TTTGCTGGG, the switch fluorescence ratio was 0.985. For AACGAGAGT the value was 0.999; for CTGTGTATGC, 1.05; for TTGTTCTTGC, 0.975. Under GGCGTATCGT stands 1.01. Turning to CACAGGGGGT, the switch fluorescence ratio was 1.17.

Turning to ATAGTGCAC, the switch fluorescence ratio stood at 1.01. For TCCTTTCCTT the value was 1.04. Turning to GTGCGGATAT, the switch fluorescence ratio stood at 0.99. For TTGTGAATCC the value was 0.999; for TCTATCGTAC, 1.24; for AATGGTTAAA, 0.975. For CGCATCACGA the value was 1.36; for CCTACGGGGT, 1.81.

On to CATATACTTA, for which the switch fluorescence ratio is 1.07. For the sequence GATAATGCCC, the switch fluorescence ratio is 1.04.

(Values after the supplement of paper PMC10126150.)
